Data from the supplement of paper PMC3334620.
In all, about 33,000 sequences were measured (“E-score (-0.5 to 0.5)”: median about -0.01, highest 2% from about 0.26 on). This is one part of the list.

The sequences below were run against Ste12 (UniProt P13574) (assay: PBM E-score (8-mer binding enrichment) (E-score (-0.5 to 0.5)); higher = stronger / more preferred TF binding; most listed sequences are background and not binding sites). Conditions: protein concentration: 200 nM; construct: GST-DNA-binding domain.
Method in brief: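 GST-tagged yeast TFs (full-length or DNA-binding domain) were made by PURExpress in vitro transcription/translation and applied at about 100-200 nM to universal all-10-mer Agilent arrays. The arrays were made double-stranded by primer extension, on fresh or once-stripped slides. Bound protein was detected with fluorescent anti-GST, and scans were normalised with masliner. Each ungapped eight-base word, pooled with its reverse complement, received an E-score (modified Wilcoxon-Mann-Whitney statistic) from the Universal PBM Analysis Suite.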

| Sequence | PBM E-score |
| --- | --- |
| CGTGCTAC | -0.178 |
| ACCTGGTC | -0.0497 |
| CGTTGTTC | -0.0423 |
| CAAGTAAA | 0.164 |
| TCTCGCCA | -0.0602 |
| CCACACGC | 0.0917 |
| GACCACGC | -0.0829 |
| ACAGGCCT | -0.177 |
| CGTAACAC | 0.0577 |
| CGTTGAAC | -0.115 |
| GGGTGGTA | 0.141 |
| AGCGATAA | 0.00154 |
| ACAGAGGT | 0.027 |
| CTTAGAGC | -0.0634 |
| AGCTTCCA | 0.00321 |
| ACCCCCAG | -0.125 |
| GTGAATTA | 0.231 |
| GACCAGTA | -0.0322 |
| CCAACTTC | 0.0693 |
| ATATGGTG | 0.102 |
| GCTTCCGA | -0.0314 |
| CTCTGTAA | 0.0369 |
| GAGAGTGA | -0.0655 |
| AAATGTCA | 0.0613 |
| ACCCGTCT | -0.0963 |

| Sequence | PBM E-score |
| --- | --- |
| ACGGAGAG | -0.144 |
| TCCTCACA | 0.036 |
| TACTAAAA | 0.234 |
| ACACTCTA | -0.107 |
| ATCGTACA | 0.0176 |
| AGGTCTCA | 0.0909 |
| CATCCTAG | -0.0741 |
| AGGAAGAG | -0.0797 |
| CGGAATAC | 0.134 |
| ATGCGCAC | 0.0144 |
| CTTCGACA | 0.0168 |
| AGAACGAT | 0.0309 |
| ACTAGTAG | -0.00771 |
| GCGTGTCA | 0.0816 |
| GCCCGGGC | 0.0454 |
| ACTCCAGA | -0.011 |
| CTTGAAAC | 0.479 |
| CACTCTTA | -0.0739 |
| GACACCTC | -0.0961 |
| CCAGCCCA | -0.111 |
| CCTGAGGC | -0.23 |
| AAAGCGTG | 0.0993 |
| AGGGCGAA | -0.0682 |
| CAAACGAC | 0.128 |
| CATCCATG | -0.0612 |

| Sequence | PBM E-score |
| --- | --- |
| GACCGGAA | -0.0322 |
| GATCGCCA | 0.0185 |
| TGTCGGAA | -0.0406 |
| AGCCCGCG | 0.0712 |
| ATTTTTTA | 0.331 |
| AATGTATG | 0.174 |
| GGGAAACA | 0.132 |
| CCGAACGA | -0.0219 |
| CGCGCGCC | 0.157 |
| CAAAACGC | 0.229 |
| CAATCACC | -0.0166 |
| AAGATGAC | -0.121 |
| AGATTGAG | 0.0985 |
| GGAAGTGA | 0.0285 |
| CAGTATAG | 0.0851 |
| AAAGATGA | 0.0383 |
| CACACGGC | -0.117 |
| ACTAAATC | 0.135 |
| CTGTTAGC | 0.0275 |
| GCGGGAGA | -0.122 |
| GCAATTGA | 0.0532 |
| TCATCCAA | 0.0613 |
| AATGAACT | 0.138 |
| GCCTGCGA | -0.0785 |
| CGTGTTTA | 0.0319 |

| Sequence | PBM E-score |
| --- | --- |
| CGCGGACA | -0.0451 |
| CGCTTTAC | -0.237 |
| AACGGGGA | 0.0804 |
| GCCAAGGA | -0.298 |
| AATTAGGA | 0.145 |
| AATTTTTA | 0.283 |
| AACACCCG | 0.151 |
| ACACCGCA | 0.0856 |
| CCCGCAAG | -0.227 |
| GAGTCAAC | -0.0842 |
| AAGGATAT | 0.167 |
| TGAGTGCA | -0.0696 |
| AAGAAGGA | 0.0908 |
| GACACCGC | -0.13 |
| CCGCAGAC | 0.0939 |
| CGTTTTTC | 0.157 |
| ATTAAGGG | 0.0581 |
| CCAAGGCG | -0.0959 |
| ATAAGTAC | 0.111 |
| ACAGAGGC | -0.328 |
| AAAAAAGG | 0.244 |
| CTCTAGGA | -0.286 |
| CTGAAATC | -0.0192 |
| ACAGTGTC | 0.0333 |
| TGTCAAAA | 0.163 |

| Sequence | PBM E-score |
| --- | --- |
| AATTGTAT | 0.0116 |
| ATTTTGGA | 0.148 |
| CACTTCCC | -0.128 |
| ACACTCAG | -0.141 |
| AGGAAATA | 0.138 |
| CTTCACCA | -0.13 |
| CCCACGTA | -0.0821 |
| AGTCATGC | -0.0295 |
| CCGTACGA | -0.0159 |
| CCGGCCGC | -0.139 |
| GAAAATCA | 0.118 |
| CAGGACAA | 0.144 |
| AGTACTGC | -0.147 |
| ATGTGCTG | 0.133 |
| GTCTGTGA | 0.0417 |
| AGGAACCA | -0.268 |
| CCAATCAC | -0.0351 |
| TCTAACAA | 0.127 |
| TCCCGGCA | -0.0651 |
| CCACCCCC | -0.0505 |
| CTTGTATA | -0.0388 |
| CAAGAAAG | 0.141 |
| GTTGTGTA | 0.0886 |
| AATTCTAT | 0.0786 |
| CCTTTGCG | 0.162 |

| Sequence | PBM E-score |
| --- | --- |
| ACTGAATC | 0.0261 |
| GAGTCGTA | -0.179 |
| GGCCCGTA | -0.18 |
| AGCCCTGA | -0.222 |
| AGGAATCA | 0.0528 |
| CTTCCGAA | 0.104 |
| TCCTAAAA | 0.0803 |
| CACCAGAA | -0.0374 |
| AGGACACA | 0.00384 |
| GATGACGA | 0.0199 |
| GATCGTTA | -0.0412 |
| CCAGGCGA | -0.162 |
| ATCAGCTG | 0.0946 |
| CCAATGAC | -0.0488 |
| CGGCCACC | -0.0949 |
| TAACCCCA | -0.157 |
| GCATCGAC | 0.0526 |
| ATGCGGCC | 0.0224 |
| GTCAGACA | -0.0151 |
| CCCTTGCA | -0.182 |
| GGAGACGA | -0.0114 |
| GCCATGAA | -0.0142 |
| CATACGCG | -0.00363 |
| AATTGCTG | 0.0957 |
| ATACCAAC | 0.0815 |

| Sequence | PBM E-score |
| --- | --- |
| ACACGGCT | -0.0225 |
| ATAGCATC | -0.082 |
| AATTTCGC | 0.155 |
| ATACGGCG | 0.15 |
| GATCCGGA | -0.0296 |
| ATATTTAG | 0.157 |
| ATACACAG | -0.054 |
| GGGTTATA | -0.0764 |
| CATAAAGC | -0.0171 |
| AGGAATAC | -0.0374 |
| TGGGGCAA | -0.0548 |
| CGGGTATC | 0.0554 |
| GCGGTCGA | 0.00673 |
| TTAGGAAA | 0.292 |
| CTAGAAGA | 0.106 |
| AAGCTCCA | -0.0211 |
| ACCGGCCC | -0.273 |
| CGCCAGAA | 0.0935 |
| CATTCCAA | -0.131 |
| GTAAGTGA | -0.0696 |
| CGATATGA | 0.0545 |
| ACTTGCTA | -0.0892 |
| ACAGGTTC | -0.119 |
| AAGTAGGA | -0.102 |
| CGATACCG | -0.129 |

| Sequence | PBM E-score |
| --- | --- |
| CCCATCGA | 0.125 |
| AGCAGCCC | -0.198 |
| ACATAAAG | 0.12 |
| GGGCTCTA | -0.0629 |
| TATGCAGA | -0.105 |
| CATTAAGA | -0.0403 |
| CAGTTTTC | 0.105 |
| AGCCTGAG | -0.163 |
| AATGTCAA | 0.165 |
| AGACAACC | 0.0678 |
| ATGCACAG | -0.111 |
| AAAACAGG | -0.0182 |
| CAGTCAAC | -0.114 |
| GGTCGGAA | 0.15 |
| AGGACGTA | -0.224 |
| ATGAGTCG | -0.164 |
| GACAGCTA | -0.215 |
| ATTCTGGG | -0.0782 |
| CCCGCGGA | 0.122 |
| AAACCAAG | 0.195 |
| AATGCTGG | 0.074 |
| AGACTCGC | -0.201 |
| ACGGGGCA | -0.123 |
| CATACTCC | 0.0984 |
| AGTTGCTG | -0.127 |

| Sequence | PBM E-score |
| --- | --- |
| AAGATACG | 0.08 |
| CGCATAAG | 0.0279 |
| GCTGAAAC | 0.485 |
| AATTACTA | 0.00237 |
| CATATTAC | 0.157 |
| ACCCCCGT | -0.079 |
| CCTTACGC | -0.062 |
| CTCCTCCC | -0.0845 |
| AATTGCTA | 0.0459 |
| GCAGATGA | -0.0285 |
| ACCAAGGC | -0.141 |
| CAAACCGG | 0.158 |
| CGCAAACG | 0.0321 |
| CGGCGCTA | -0.12 |
| AGCAGGTA | 0.0954 |
| GTATAGAC | -0.0331 |
| CCTATGTA | -0.162 |
| AGGGTAAC | 0.00389 |
| CGATGAGA | 0.0105 |
